Assay results reported in the BET-seq Pho4 binding data (Le et al. 2018).
The other results are listed elsewhere or left out. Values were computed here from the reads of four pooled replicates and scatter widely.

Each sequence was assayed against T1, Pho4 (S. cerevisiae) (UniProt P07270) (assay: relative binding free energy (BET-seq); higher = weaker binding). Settings: reference: library average.
T1 sequence: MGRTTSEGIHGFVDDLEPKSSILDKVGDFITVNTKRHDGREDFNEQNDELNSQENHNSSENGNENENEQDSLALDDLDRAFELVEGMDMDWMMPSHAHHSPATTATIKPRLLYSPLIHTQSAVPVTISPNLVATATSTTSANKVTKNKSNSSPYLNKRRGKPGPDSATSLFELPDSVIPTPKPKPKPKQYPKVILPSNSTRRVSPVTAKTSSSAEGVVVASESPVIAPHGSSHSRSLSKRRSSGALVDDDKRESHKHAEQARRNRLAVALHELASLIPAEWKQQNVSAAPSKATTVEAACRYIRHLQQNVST

| Sequence | relative binding free energy |
| --- | --- |
| AAGTACACGTGTAGGT | -0.01 kcal/mol |
| TGGGGCACGTGGACGA | -0.01 kcal/mol |
| AGATTCACGTGGGTAT | 0.21 kcal/mol |
| TTTAACACGTGAGTGT | 0.07 kcal/mol |
| CGTGGCACGTGCTAAG | -0.02 kcal/mol |
| TTCTGCACGTGTGAGT | 0.02 kcal/mol |
| GGTGTCACGTGTAGTT | 0.18 kcal/mol |
| GATGTCACGTGTGGCG | 0.14 kcal/mol |
| TTAAGCACGTGATGAG | -0.02 kcal/mol |
| TTTACCACGTGTGTAG | -0.05 kcal/mol |
| TGCTTCACGTGCGGTA | 0.15 kcal/mol |
| TGGCTCACGTGTGTGT | 0.16 kcal/mol |
| GACTACACGTGGGTTT | -0.01 kcal/mol |
| TTGATCACGTGCAATG | 0.17 kcal/mol |
| ATATTCACGTGGGGGT | 0.12 kcal/mol |
| TATAGCACGTGTTTCG | -0.13 kcal/mol |
| GTCTGCACGTGAATGT | 0.34 kcal/mol |
| GTGGCCACGTGGCGCG | -0.18 kcal/mol |
| GTTAGCACGTGGCGAT | -0.18 kcal/mol |
| GTTCTCACGTGAGGTA | 0.36 kcal/mol |
| TTTGTCACGTGGCTAT | -0.05 kcal/mol |

| Sequence | relative binding free energy |
| --- | --- |
| TAAGGCACGTGGCGGG | -0.18 kcal/mol |
| TGTATCACGTGCGCGG | -0.03 kcal/mol |
| CGCGGCACGTGTTTAG | 0 kcal/mol |
| ATGTACACGTGTTGCG | 0.09 kcal/mol |
| TATAGCACGTGTGATT | -0.05 kcal/mol |
| GTTGACACGTGCGTGT | -0.07 kcal/mol |
| AAAAGCACGTGTGTAG | 0.06 kcal/mol |
| CTTTGCACGTGAATGG | 0.29 kcal/mol |
| GTTGTCACGTGTAGCA | 0.16 kcal/mol |
| CTTTGCACGTGAGTTA | 0.12 kcal/mol |
| TCATGCACGTGGATGG | 0.02 kcal/mol |
| TGTGCCACGTGCTGTG | -0.16 kcal/mol |
| AGAGACACGTGAAGGT | 0.12 kcal/mol |
| TTTCACACGTGGATGG | 0.09 kcal/mol |
| AAATGCACGTGGTGAT | 0 kcal/mol |
| ATTAGCACGTGCTGAT | -0.08 kcal/mol |
| AGGTCCACGTGTTTTG | 0.02 kcal/mol |
| GTACTCACGTGGTGAG | 0.24 kcal/mol |
| GGTAGCACGTGAGTAA | 0.22 kcal/mol |
| TATTTCACGTGGGAAG | 0.14 kcal/mol |
| GAGGTCACGTGGGCTA | -0.08 kcal/mol |

| Sequence | relative binding free energy |
| --- | --- |
| CGGGGCACGTGGTTTT | -0.05 kcal/mol |
| GTTAACACGTGTGGGA | 0.03 kcal/mol |
| CTTTCCACGTGTTTTG | 0.03 kcal/mol |
| TAACGCACGTGATTTG | 0.1 kcal/mol |
| GTTGGCACGTGGTCTC | -0.12 kcal/mol |
| GGAGTCACGTGCTCGG | 0.05 kcal/mol |
| GTGTCCACGTGATGGT | 0.14 kcal/mol |
| TCGATCACGTGATGTT | 0.12 kcal/mol |
| AGGAACACGTGCGTGT | 0.09 kcal/mol |
| TACATCACGTGTGGTG | 0.05 kcal/mol |
| GAGGACACGTGTGTTT | 0.15 kcal/mol |
| TTTTGCACGTGTGCCA | 0.07 kcal/mol |
| CATGGCACGTGTGGCT | -0.04 kcal/mol |
| TTGGGCACGTGTGCTG | -0.11 kcal/mol |
| TATTTCACGTGTATCT | 0.22 kcal/mol |
| ATATTCACGTGTGTTC | 0.16 kcal/mol |
| TGTAACACGTGTAGAG | 0 kcal/mol |
| GGATACACGTGCTTGG | 0.13 kcal/mol |
| ATATGCACGTGGGGCT | -0.13 kcal/mol |
| GTGTTCACGTGCAGTC | 0.33 kcal/mol |
| GGTAGCACGTGAAGGG | 0.33 kcal/mol |
